Measurements: a compilation of properties of binary mixtures (doi:10.1021/acs.jced.3c00537)
Some of these densities may be calculated back from excess volumes.

Assay: xn = mol fraction of the nth substance listed
Conditions: 100 kPa

COP(=O)([O-])OC.Cn1cc[n+](C)c1 + CCO
mass density [kg/m3]
Conditions	293.15 K	298.15 K	303.15 K	308.15 K	313.15 K	318.15 K	323.15 K	328.15 K	333.15 K	338.15 K
x1 = 0.0201	821	816	812	–	804	–	795	–	786	–
x1 = 0.0402	848	–	840	836	831	827	823	819	814	810
x1 = 0.0803	896	892	888	884	880	876	872	868	864	–
x1 = 0.1005	–	914	–	906	902	898	894	890	–	882
x1 = 0.1193	936	932	928	–	920	917	913	909	905	900
x1 = 0.1597	–	–	–	960	957	953	949	945	–	937
x1 = 0.2006	1004	1000	–	992	988	985	981	977	973	969
x1 = 0.3005	1066	1063	–	1055	1051	–	–	1040	–	1033
x1 = 0.4031	1116	1112	1108	1105	–	1097	1094	1090	1086	1083
x1 = 0.4996	1151	1147	1144	1140	1136	1133	1129	–	1122	–
x1 = 0.6043	1182	1179	1175	1172	1168	1165	1161	1158	1154	1151
x1 = 0.7009	1207	–	1199	1196	1192	–	–	1182	–	1175
x1 = 0.797	–	–	–	1216	–	1209	–	–	1199	1195
x1 = 0.8995	1244	–	1237	–	1230	1227	–	1220	–	1213
x1 = 1	1260	1257	1253	–	1246	–	1240	1236	1233	1229

CCO + CC[n+]1ccn(C)c1.COP(=O)([O-])OC
x2 = 0
Conditions	mass density [kg/m3]
293.15 K	790
303.15 K	781
308.15 K	777
313.15 K	772
318.15 K	768
323.15 K	763
333.15 K	754
338.15 K	749

CCO + COP(=O)([O-])OC.Cn1cc[n+](C)c1
x2 = 0
Conditions	mass density [kg/m3]
293.15 K	790
303.15 K	781
313.15 K	772
318.15 K	768
323.15 K	763
333.15 K	754
338.15 K	749

CC[n+]1ccn(C)c1.COP(=O)([O-])OC + CCO
mass density [kg/m3]
Conditions	293.15 K	298.15 K	303.15 K	308.15 K	313.15 K	318.15 K	323.15 K	328.15 K	333.15 K	338.15 K
x1 = 0.0202	821	816	812	–	804	799	795	791	–	782
x1 = 0.0402	848	844	840	836	831	827	823	819	814	810
x1 = 0.0802	895	891	887	883	879	–	871	867	863	–
x1 = 0.1004	915	911	907	903	899	895	891	887	–	879
x1 = 0.1203	934	930	926	–	–	914	911	906	902	898
x1 = 0.1594	966	963	959	955	–	947	943	–	936	932
x1 = 0.2032	997	994	990	986	982	979	975	971	967	964
x1 = 0.3007	1052	1049	–	1041	–	–	1030	1027	1023	1019
x1 = 0.3994	1094	1091	1087	1083	1080	1076	1073	1069	1065	1062
x1 = 0.5013	1128	–	1120	1117	1113	1110	–	1103	1099	1096
x1 = 0.5994	1153	1150	–	1143	–	1136	1133	1129	1126	1122
x1 = 0.7006	–	–	1168	1165	1161	1158	1154	–	–	1144
x1 = 0.8011	1193	–	1186	1182	1179	1176	–	1169	1165	1162
x1 = 0.8988	1207	1204	1200	1197	1194	1190	1187	1184	1180	–
x1 = 1	1220	1217	1214	–	–	1203	1200	1197	–	1190
